For part of these data: What follows is the remainder of the data, with few or none of the strong results. The entries are a selection whose mix differs from that of the whole data set.
Key:
Details in all cases: concentration: 1 μM,replicates: in singlicate; n = 1
DAPK3 = test system: DAPK3
DCAMKL1 = test system: T1, DCAMKL1
T1 construct: gene DCLK1

DCAMKL2 = test system: T2, DCAMKL2
T2 construct: gene DCLK2

DCAMKL3 = test system: T3, DCAMKL3
T3 construct: gene DCLK3

DDR1 = test system: DDR1
DDR2 = test system: DDR2
DLK = test system: T4, DLK
T4 construct: gene MAP3K12

DMPK2 = test system: T5, DMPK2
T5 construct: gene CDC42BPG

DMPK = test system: DMPK
DRAK1 = test system: T6, DRAK1
T6 construct: gene STK17A

DRAK2 = test system: T7, DRAK2
T7 construct: gene STK17B

DYRK1A = test system: DYRK1A
DYRK1B = test system: DYRK1B
DYRK2 = test system: DYRK2
EGFR = test system: EGFR
EIF2AK1 = test system: EIF2AK1
EPHA1 = test system: EPHA1
EPHA2 = test system: EPHA2
EPHA3 = test system: EPHA3
EPHA4 = test system: EPHA4
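Note: KINOMEscan kinase panel screen.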

Row | Structure (SMILES) | %Inh (DAPK3) [%] | %Inh (DCAMKL1) [%] | %Inh (DCAMKL2) [%] | %Inh (DCAMKL3) [%] | %Inh (DDR1) [%] | %Inh (DDR2) [%] | %Inh (DLK) [%] | %Inh (DMPK2) [%] | %Inh (DMPK) [%] | %Inh (DRAK1) [%] | %Inh (DRAK2) [%] | %Inh (DYRK1A) [%] | %Inh (DYRK1B) [%] | %Inh (DYRK2) [%] | %Inh (EGFR) [%] | %Inh (EIF2AK1) [%] | %Inh (EPHA1) [%] | %Inh (EPHA2) [%] | %Inh (EPHA3) [%] | %Inh (EPHA4) [%]
1 | O=C1NC(=O)C(c2ccc(Cl)cc2)=C1Nc1cccc(C(=O)O)c1 [SB-360737] | 0 | 14 | 0 | 0 | 10 | 1 | 5 | 7 | 0 | 0 | 0 | 38 | 0 | 23 | 16 | 14 | 23 | 0 | 0 | 14
2 | O=C1NC(=O)C(c2ccc(Cl)cc2)=C1Nc1cccc(O)c1 [SB-333613] | 28 | 5 | 18 | 0 | 17 | 36 | 5 | 3 | 3 | 18 | 16 | 58 | 0 | 23 | 9 | 15 | 0 | 0 | 27 | 0
3 | CS(=O)(=O)c1ccccc1-c1nc(-c2ccc(F)cc2)c(-c2ccncc2)[nH]1 [SB-213663] | 0 | 0 | 4 | 0 | – | 58 | 12 | 87 | 29 | 0 | 0 | 8 | 33 | 7 | 48 | 0 | 0 | 9 | 39 | 0
4 | Cc1cc(C)cc(Oc2nccc(-c3c(-c4ccc(F)cc4)ncn3C3CCNCC3)n2)c1.O=C(O)C(F)(F)F.O=C(O)C(F)(F)F.O=C(O)C(F)(F)F [SB-284851] | 16 | 33 | 0 | 6 | 0 | 39 | 0 | 79 | 0 | 0 | 15 | 0 | 6 | 0 | 26 | 0 | 17 | 0 | 0 | 1
5 | O=C1NC(=O)C(c2ccccc2Cl)=C1Nc1cccc(C(=O)O)c1 [SB-390526] | 0 | 3 | 0 | 1 | 13 | 24 | 16 | 0 | 1 | 0 | 0 | 49 | 22 | 14 | 12 | 10 | 3 | 14 | 0 | 5
6 | O=C1NC(=O)C(c2ccccc2)=C1Nc1cc(Cl)c(O)c(Cl)c1 [SB-390530] | 0 | 0 | 0 | 27 | 0 | 0 | 0 | 0 | 0 | 0 | 4 | 18 | 3 | 14 | 0 | 0 | 0 | 0 | 0 | 23
7 | O=C(O)c1ccc(-c2nc(-c3ccc(F)cc3)c(-c3ccncc3)[nH]2)cc1 [SB-202620] | 17 | 49 | 8 | 20 | 75 | 79 | 0 | 21 | 31 | 1 | 4 | 0 | 2 | 13 | 76 | 0 | 0 | 0 | 27 | 25
8 | CSc1ccc(NC2=C(c3cccc(Cl)c3)C(=O)NC2=O)cc1 [SB-341528] | 0 | 28 | 10 | 0 | 0 | 24 | 0 | 0 | 0 | 1 | 7 | 5 | 0 | 0 | 2 | 1 | 13 | 35 | 21 | 0
